{
  "source": "patent US12344663B2",
  "about": "“Anti-C3 antibodies and antigen-binding fragments thereof and their uses for treating eye or ocular diseases” (CDR-Life AG, priority 2021, dated 2025)",
  "assay": "In vitro BrM permeation assay, Ussing chamber",
  "format": "in vitro ADME, porcine",
  "conditions": "0.1 mg/ml, up to 72 h, in words",
  "method": "Porcine Bruch's membrane samples are used for this measurement. Porcine eyes are collected from the slaughterhouse) no more than 6 hours after the animals were sacrificed and stored at 4° C. until use (on same day).\nPreparation of enriched Bruch's Membrane (BrM): The eyes are placed into a disposable petri-dish and any residual tissue surrounding the eyeball is removed. The eyeball is incised next to the iris with a scalpel and the front part of the eye as well as lens, vitreous and retinal tissue are removed from the eyecup. […]\nSampling and membrane integrity analysis: For sampling at different timepoints (4 h, 24 h, 48 h and 72 h) the solution in the single compartments is mixed by carefully pipetting up and down and 90 μl were transferred separately from each sample and diffusate chamber to collection tubes. […] Accumulation of blue particles in the second compartment is observed and camera pictures are recorded to control for overall membrane integrity.\nSample analysis: 15 μl of each solution from the sample and diffusate chambers are effectively loaded on 2 precast polyacrylamide gels (NuPAGE Bis-Tris gels) together with a similar amount of stored mastermix as loading control. The first gel is analyzed by standard SDS-PAGE and Coomassie-based staining methods for protein detection (anti-C3 scFv). […]\nEvaluation: Pictures of the SDS-gels are analyzed using ImageJ2 software (Fiji). […]",
  "data": [
    {"molecule": "Compound A3: NGM621 surrogate, anti-C3 IgG, HC SEQ ID NO: 53, LC SEQ ID NO: 54 (antibody, Compound C3 - HC; Compound C3 - LC) heavy: QVQLVQSGAEVKKPGASVKVSCKASGYTFTDFYMDWVRQAPGQRLEWMGYIYPHNGGTTYNQQFTGRVTITVDKSASTAYMELSSLRSEDTAVYYCARRGGFDFDYWGQGTLVTVSS[letters of human IgG1 constant region left out] light: DIQMTQSPSSLSASVGDRVTITCKASENVDTYVSWYQQKPGKAPKLLIYGASNRYTGVPSRFSGSGSGTDFTFTISSLQPEDIATYHCGQSHSYPLTFGQGTKLEIKRTVAAPSVFIFPPSDEQLKSGTASVVCLLNNFYPREAKVQWKVDNALQSGNSQESVTEQDSKDSTYSLSSTLTLSKADYEKHKVYACEVTHQGLSSPVTKSFNRGEC", "values": [
      {"measurement": "Diffusion/penetration through porcine Bruch's membrane", "result": "Reduced penetration"}
    ]}
  ]
}
